The other results are listed elsewhere or left out. Antibody binding of pooled human sera (four to six donors per pool; dilution not stated) to peptides of the Trypanosoma cruzi antigen TSSA on microarrays. Quantile-normalised fluorescence in arbitrary units, mean of duplicate arrays; higher = more binding. No active / inactive call. The uninfected pools are read here as the healthy donors of the same country. The strongest signals lie near the top of the scale (about 60,000).
Key:
Experiment in all cases: antibody binding signal (normalised fluorescence) (arbitrary fluorescence units); higher = stronger serum antibody binding to peptide
[1] = test system: pooled sera of chronic Chagas disease patients, Argentina
Experimental: (§1)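 Microarray of 15-residue peptides over residues 30-55 of Trypanosoma cruzi TSSAII, each with 1 to 10 substitutions at naturally variable positions, probed with one serum pool per country.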

[2] = test system: pooled sera of chronic Chagas disease patients, Bolivia
Experimental: as §1

[3] = test system: pooled sera of chronic Chagas disease patients, Brazil
Experimental: as §1

[4] = test system: pooled sera of chronic Chagas disease patients, Colombia
Experimental: as §1

[5] = test system: pooled sera of chronic Chagas disease patients, Mexico
Experimental: as §1

[6] = test system: pooled sera of chronic Chagas disease patients, USA
Experimental: as §1

[7] = test system: pooled sera of uninfected people, Argentina
Experimental: as §1

[8] = test system: pooled sera of uninfected people, Bolivia
Experimental: as §1

[9] = test system: pooled sera of uninfected people, Brazil
Experimental: as §1

[10] = test system: pooled sera of uninfected people, Colombia
Experimental: as §1

[11] = test system: pooled sera of uninfected people, Mexico
Experimental: as §1

[12] = test system: pooled sera of uninfected people, USA
Experimental: as §1

Row | Sequence | antibody binding signal [1] | antibody binding signal [2] | antibody binding signal [3] | antibody binding signal [4] | antibody binding signal [5] | antibody binding signal [6] | antibody binding signal [7] | antibody binding signal [8] | antibody binding signal [9] | antibody binding signal [10] | antibody binding signal [11] | antibody binding signal [12]
1 | TEKKPAAGETPSQPG | 1690 | 1990 | 33800 | 310 | 312 | 3540 | 85.1 | 386 | 310 | 571 | 190 | 555
2 | TENKAATGGAPSPSG | 32400 | 588 | 3400 | 541 | 664 | 2440 | 280 | 189 | 343 | 182 | 216 | 302
3 | STPPSGTDNKAATGE | 29700 | 39800 | 46300 | 1100 | 7910 | 24400 | 914 | 557 | 759 | 180 | 163 | 237
4 | NKTAAGEAPSQSGAS | 494 | 24200 | 15400 | 273 | 804 | 5050 | 455 | 945 | 723 | 255 | 679 | 868
5 | GTEKKTATGETPSQS | 973 | 754 | 2630 | 545 | 805 | 7510 | 271 | 571 | 238 | 114 | 157 | 132
6 | GKDNKTATGEAPSPP | 14700 | 21500 | 16900 | 4980 | 1770 | 20600 | 279 | 213 | 179 | 314 | 96.2 | 122
7 | GKDKKAAAGETPSPS | 599 | 287 | 201 | 1160 | 805 | 1270 | 158 | 141 | 96.2 | 102 | 132 | 581
8 | GKDNKAATGGTPSPP | 2050 | 715 | 1780 | 5720 | 5910 | 4480 | 190 | 221 | 160 | 170 | 80.5 | 94.3
9 | PSGTENKTATGGAPS | 47900 | 24400 | 43600 | 2420 | 3800 | 9670 | 1370 | 611 | 430 | 431 | 772 | 473
10 | PPSGTENKPAAGGTP | 54800 | 44400 | 51200 | 914 | 11400 | 21500 | 2970 | 2890 | 1920 | 1230 | 500 | 1190
11 | KEKKPATGGTPSPPG | 338 | 226 | 152 | 547 | 196 | 263 | 159 | 97.7 | 202 | 108 | 81.9 | 331
12 | NKPAAGEAPSPSGAS | 372 | 4240 | 28800 | 276 | 382 | 16100 | 294 | 788 | 487 | 236 | 138 | 861
13 | GTEKKPAAGETPSPP | 1140 | 442 | 3840 | 727 | 1300 | 2710 | 153 | 978 | 2220 | 150 | 399 | 1020
14 | KPAAGGAPSQSGASS | 237 | 251 | 517 | 1070 | 1130 | 325 | 306 | 188 | 124 | 105 | 348 | 207
15 | GTEKKPATGETPSPP | 31300 | 21800 | 28900 | 2250 | 3970 | 22100 | 160 | 1040 | 814 | 361 | 1650 | 1090
16 | PSGKDNKPATGGTPS | 3180 | 813 | 6170 | 4550 | 3860 | 6210 | 774 | 996 | 183 | 130 | 133 | 152
17 | KDKKTAAGGTPSPSG | 341 | 195 | 191 | 3090 | 202 | 1590 | 113 | 89.1 | 362 | – | 84.4 | 139
18 | KKTAAGGAPSQSGAS | 194 | 255 | 163 | 3250 | 618 | 251 | 216 | 103 | 119 | – | 107 | 201
19 | GTENKTAAGEAPSPS | 28100 | 1490 | 1720 | 1150 | 1470 | 8130 | 210 | 299 | 187 | – | 138 | 117
20 | PPSGTEKKAAAGGTP | 29300 | 1380 | 15300 | 6290 | 4160 | 4240 | 983 | 428 | 2100 | – | 148 | 177
21 | SGKDKKAATGGTPSP | 767 | 548 | 298 | 827 | 857 | 1170 | 152 | 85 | 162 | – | 69.5 | 106
22 | SGKENKAAAGGTPSQ | 3670 | 1050 | 20900 | 10600 | 5220 | 22500 | 4790 | 1070 | 404 | – | 279 | 135
23 | PSGTEKKAATGETPS | 6080 | 4010 | 10500 | 1350 | 1750 | 12600 | 657 | 362 | 322 | – | 233 | 317
24 | TENKTATGGTPSQPG | 24000 | 1100 | 846 | 1760 | 437 | 648 | 541 | 185 | 467 | – | 1600 | 148
25 | GKENKTATGETPSQP | 9420 | 3000 | 34400 | 11200 | 11100 | 20300 | 518 | 277 | 276 | – | 424 | 227
26 | PSGTEKKTAAGEAPS | 12800 | 2940 | 4290 | 4350 | 4140 | 8820 | 792 | 782 | 203 | – | 310 | 588
